“And” between values parts separate entries of the source, which are not always exact repeats. Identical values can stand only once. The campaign covered roughly 420,000 compounds. About 64,000 (15%) were called active. The shares of active, inactive and inconclusive entries below differ from those in the screen. Calls follow the shape of the dose curve; as a rule, active = well fitted inhibition curve with a large enough effect; inconclusive = small, poorly fitted or top-dose-only effect; inactive = flat fitted curve, though single readings scatter. No potency is given beside an inconclusive call; the fits are too rough.
Assay: qHTS for Inhibitors of human tyrosyl-DNA phosphodiesterase 1 (TDP1): qHTS in cells in absence of CPT; also: nearly all actives have a fitted effect of over 55% in size
Details: DT40 Tdp1-/- hTDP1 cells, no CPT, ATP luminescence, 48 h; activity change, negative = growth inhibition: at 46.2 µM (top of the series) unless noted
Method in brief: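 Readout: luminescence from CellTiter-Glo after 30 min in the dark at RT. Cells: DT40 Tdp1-/- with stable hTDP1, 400/well. Exposure: compounds alone, ≥48 hr, 37 °C.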
% is scaled to controls: 0 for no effect and ±100 for the full control effect; potency is read from the fitted curve at half-maximal effect; tags tell the direction and shape of the fitted curve.

Q: With `Nc1oc2ccc(F)cc2c(=O)c1C=O` as the compound, how does the Potency read?
A: inactive

Q: For `Cc1c(C(=O)NCc2ccccc2C(F)(F)F)sc(=O)n1Cc1cccc(C(F)(F)F)c1`, which Potency is on record?
A: inconclusive [inhibitor, single point]

Q: Which Potency does the source give for `COc1ccc(N(C(=O)CCl)C(C(=O)NCCc2ccccc2)c2cccs2)cc1` (stereo not drawn) here?
A: active: 4.11 µM

Q: Which Potency does the source give for `COc1ccc(-n2ccc(-c3sc(NCc4cc(OC)c5c(c4)OCO5)nc3C)n2)cc1` here?
A: inconclusive [inhibitor, single point]

Q: With `O=S(=O)(NC1=NCCCCC1)c1ccccc1Cl` as the compound, how does the Potency read?
A: inactive

Q: With `CCOC(=O)C1=C(O)C(=O)N(c2ccc(S(N)(=O)=O)cc2)C1c1cccc([N+](=O)[O-])c1` (stereo not drawn) as the compound, how does the activity change, negative = growth inhibition read?
A: inconclusive: -36.2% [inhibitor]

Q: Which Potency does the source give for `COC(=O)C1=C(C)N(Cc2ccccc2)C(=NCCc2ccccn2)N[C@H]1c1cccc(C(F)(F)F)c1` here?
A: active: 6.31 µM and active: 14.6 µM

Q: For `Cc1c(NC(=O)c2cc(=O)[nH]c3ccccc23)c(=O)n(-c2ccccc2)n1C`, which Potency is on record?
A: inactive

Q: With `CC(CNC(=O)Cn1c(-c2cccs2)cc2cc(Cl)ccc21)c1ccccc1` (stereo not drawn) as the compound, how does the Potency read?
A: inconclusive [inhibitor, partial curve]

Q: With `Cc1cc(C)nc(NC(=O)COc2cc(Cl)cc(Cl)c2)n1` as the compound, how does the Potency read?
A: inactive

Q: For `O=C(NCc1cc(C(F)(F)F)ccc1Cl)c1cccc2c1C(=O)c1ccc(N3CCC(Cc4ccccc4)CC3)cc1S2(=O)=O`, which Potency is on record?
A: inconclusive [inhibitor, partial curve]

Q: Which Potency does the source give for `COc1cc(Cl)c(C)cc1NC(=O)CCn1cnc2onc(-c3ccc(F)cc3)c2c1=O` here?
A: inconclusive [inhibitor, single point]

Q: Which Potency does the source give for `Cc1cc(Br)c(OCc2ccc(C(=O)N/N=C3\CC(=O)CC(C)(C)C3)cc2)c(Br)c1` here?
A: inconclusive [inhibitor, single point]

Q: Which Potency does the source give for `CC(C)n1ncc2c(C(=O)N3CCN(c4ccc(F)cc4)CC3)cc(-c3ccccc3)nc21` here?
A: inconclusive [inhibitor, single point]

Q: Which Potency does the source give for `Cc1cccc2cc(C#N)c(NCCNC(=O)c3ccccc3)nc12` here?
A: inconclusive [inhibitor, single point]

Q: For `COCC(C)NS(=O)(=O)c1ccc(N2CCCCS2(=O)=O)cc1` (stereo not drawn), which Potency is on record?
A: inconclusive [inhibitor, single point]

Q: For `CCOc1cc(NC(=O)c2cccs2)c(OCC)cc1NC(=O)CCC(=O)NCC1CCCO1` (stereo not drawn), which Potency is on record?
A: inconclusive [inhibitor, partial curve]

Q: Which Potency does the source give for `CCCCC(=O)N(C)c1c(CC)nc2c(OCc3ccc(C(F)(F)F)cc3)cccn12` here?
A: inconclusive [inhibitor, single point]

Q: For `Cc1cc(N2CCN(C)CC2)nc2ccc(NC(=O)CCC3CCCC3)cc12`, which Potency is on record?
A: inconclusive [inhibitor, single point]

Q: Which activity change, negative = growth inhibition does the source give for `Cc1ccc(-n2ncc3c(=O)[nH]c(SCC(=O)N4CCCCC4)nc32)cc1` here?
A: inconclusive: -30.2% [inhibitor]

Q: With `CC(C)(Oc1ccc(Cl)cc1)C(=O)Nc1ccncc1` as the compound, how does the Potency read?
A: inconclusive [inhibitor, single point]

Q: With `CCC(CC)COC(=O)C1=C(C)NC(=O)NC1c1cc(OC)ccc1OC` (stereo not drawn) as the compound, how does the Potency read?
A: inconclusive [inhibitor, single point]

Q: For `O=C(CCNc1n[nH]c(=O)[nH]c1=O)N/N=C\c1ccc(Br)cc1`, which Potency is on record?
A: inactive

Q: With `Cn1c(=O)c2c(nc(N3CCN(C(=O)c4ccco4)CC3)n2CCSc2ncccn2)n(C)c1=O` as the compound, how does the Potency read?
A: inconclusive [inhibitor, partial curve]

Q: Which Potency does the source give for `CCN1C(C(=O)c2ccccc2)=C(NC(=O)c2ccc(Cl)cc2)c2ccccc2S1(=O)=O` here?
A: inconclusive [inhibitor, single point]

Q: Which Potency does the source give for `COc1ccc(CC(=O)Nc2nc(C)cs2)cc1S(=O)(=O)N1CCOCC1` here?
A: inactive

Q: For `COc1ccc(NC(=O)c2c(Cl)nc3ccccn23)cc1`, which Potency is on record?
A: inactive

Q: For `CCc1ccc2c(c1)c(N=NC1=NC(=O)CS1)c(O)n2C`, which Potency is on record?
A: active: 16.4 µM

Q: With `O=C(NN=C1CCCC1)c1sc2ccccc2c1Cl` as the compound, how does the Potency read?
A: inactive

Q: Which Potency does the source give for `O=C(C1=C[C@@H](C2CC2)C[C@@H](OCc2ccc(CO)cc2)O1)N1CCN(Cc2ccccc2)CC1` here?
A: inconclusive [inhibitor, single point]

Q: For `CC(C)(C)OC(=O)N(CCc1ccccc1)Cc1cccc(OCc2cccc(NC(=O)C3CC3)c2)c1`, which Potency is on record?
A: inconclusive [inhibitor, single point]

Q: With `COC(=O)c1[nH]c2ccc(Cl)cc2c1NC(=O)C1CC1` as the compound, how does the Potency read?
A: inconclusive [inhibitor, partial curve]

Q: With `Cc1ccc(Nc2nc(CSc3nnc(-c4ccccc4)n3C)cs2)cc1` as the compound, how does the Potency read?
A: inconclusive [inhibitor, single point]

Q: With `C/[N+]([O-])=C\c1ccc([N+](=O)[O-])o1` as the compound, how does the Potency read?
A: inconclusive [inhibitor, single point]

Q: With `Cc1ccc(S(=O)(=O)CCC(=O)OCC(=O)c2ccc(C)c(C)c2)cc1` as the compound, how does the Potency read?
A: inactive

Q: Which Potency does the source give for `CC(=O)Nc1cccc(C(=O)NC2CCCc3c2cnn3-c2ccccc2F)c1` (stereo not drawn) here?
A: inactive

Q: Which Potency does the source give for `Brc1cccc(CN2CCCCCC2)c1` here?
A: inactive

Q: For `O=[N+]([O-])c1cc(-c2csc(NCCc3nc4cc(Cl)c(Cl)cc4n3CCCO)n2)ccc1Cl`, which Potency is on record?
A: inconclusive [inhibitor, partial curve]

Q: Which Potency does the source give for `CN(C)c1nc2c(c(=O)[nH]c(=O)n2C)n1Cc1ccccc1Br` here?
A: inconclusive [inhibitor, partial curve]

Q: For `N#Cc1cnn2c(-c3ccc(Cl)cc3Cl)ccnc12`, which activity change, negative = growth inhibition is on record?
A: inconclusive: -36% [inhibitor]

Q: For `NC(=O)CN1C(=O)/C(=c2\sc3nc(=O)c(Cc4ccccc4)nn3c2=O)c2ccccc21`, which Potency is on record?
A: inconclusive [inhibitor, partial curve]

Q: Which Potency does the source give for `N=c1c2c3c(sc2ncn1CCN1CCOCC1)CCCC3` here?
A: inconclusive [inhibitor, partial curve]

Q: With `CSc1ccc(C(=O)C2CCCN(S(=O)(=O)c3c(C)noc3C)C2)cc1` (stereo not drawn) as the compound, how does the Potency read?
A: inconclusive [inhibitor, single point]
